Measurements as given in article PMC5681660, “Reduced hepatitis B and D viral entry using clinically applied drugs as novel inhibitors of the bile acid transporter NTCP” (Scientific Reports, 2017).
Counter-ions that a name gives are not always drawn. Like-named read-outs stand apart in the source and are kept apart here.

How the values were obtained:
[1] = biological target: T1, human NTCP (Homo sapiens, UniProt Q14973); test: Screening taurocholate uptake assay (96-well, [14C]taurocholate, 10 µM drug); conditions: for remaining activity at 10 µM: 10 min, read-out: %NTCP activity
T1 sequence (Q14973 1-349): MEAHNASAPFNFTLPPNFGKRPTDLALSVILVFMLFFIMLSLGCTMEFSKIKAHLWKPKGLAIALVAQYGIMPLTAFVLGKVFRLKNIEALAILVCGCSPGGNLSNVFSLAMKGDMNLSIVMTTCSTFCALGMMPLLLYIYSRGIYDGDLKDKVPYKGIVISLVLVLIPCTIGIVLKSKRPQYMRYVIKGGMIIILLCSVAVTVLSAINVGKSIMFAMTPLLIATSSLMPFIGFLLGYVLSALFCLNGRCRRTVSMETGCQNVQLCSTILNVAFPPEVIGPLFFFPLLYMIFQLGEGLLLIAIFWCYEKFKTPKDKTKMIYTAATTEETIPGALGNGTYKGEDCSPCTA

[2] = biological target: T1, human NTCP; test: Screening fluorescent competitive Myrcludex B-FITC binding assay (96-well, 10 µM drug)
[3] = screen, 10 µM drug, Myrcludex B-FITC binding
[4] = 0.5 h, read-out: %NTCP binding, Prestwick library screen, Myrcludex B-FITC binding, 10 µM drug
[5] = screen, 10 µM drug, [14C]taurocholate uptake
[6] = 0.5 h, read-out: %NTCP binding, screen, 10 µM drug, Myrcludex B-FITC binding
[7] = Prestwick library screen, 10 µM drug, [14C]taurocholate uptake
[8] = Prestwick library screen, 10 µM drug, Myrcludex B-FITC binding

Row | Structure (SMILES) | remaining activity at 10 µM [1] [%] | remaining activity at 10 µM ([2]; 0.5 h, read-out: %NTCP binding) [%] | other results
1 | O=C1[C@H]2CCCC[C@H]2C(=O)N1CCCCN1CCN(c2nsc3ccccc23)CC1 [Perospirone] | 97.6 | 84.4 | 
2 | Cc1cc2cc3c(C)cc(=O)oc3c(C)c2o1 [Trioxsalen] | 117 | 89.4 | 
3 | COc1cc(NC(C)CCCN)c2ncccc2c1 (stereo not drawn) [Primaquine diphosphate] | 86.8 | 41.3 | 
4 | CC[C@H]1OC(=O)[C@H](C)[C@@H](O[C@H]2C[C@@](C)(OC)[C@@H](O)[C@H](C)O2)[C@H](C)[C@@H](O[C@@H]2O[C@H](C)C[C@H](N(C)C)[C@H]2O)[C@](C)(O)C[C@@H](C)C(=O)[C@H](C)[C@@H](O)[C@]1(C)O [Erythromycin] | 113 | 86.9 | 
5 | Nc1ccn([C@H]2CC[C@@H](CO)O2)c(=O)n1 [Zalcitabine] | 111 | 86.3 | 
6 | CC1(C)OC(=O)NC1=O [Dimethadione] | 104 | 104 | 
7 | CCC(=O)[C@@]1(C)[C@H](C)C[C@H]2[C@@H]3CCC4=CC(=O)C=C[C@]4(C)[C@H]3[C@@H](O)C[C@@]21C [Rimexolone] | 52.1 | 69 | 
8 | Cc1cn[nH]c1 [Fomepizole] | 128 | 88.5 | 
9 | N[C@@H](Cc1cc(I)c(Oc2cc(I)c(O)c(I)c2)c(I)c1)C(=O)O [Thyroxine (L)] |  |  | %NTCP activity [1]: 54.8973%; %NTCP binding [2, 3]: 51.9567%
10 | N[C@@H]1CON=C1O [D-cycloserine] | 65.9 | 95.3 | 
11 | O=C(CCCN1CCC(O)(c2ccc(Br)cc2)CC1)c1ccc(F)cc1 [Bromperidol] | 38.4 | 63.3 | 
12 | CC(=O)O[C@H]1C[C@@H]2CC[C@@H]3[C@H](CC[C@@]4(C)[C@H]3C[C@H]([N+]3(C)CCCCC3)[C@@H]4OC(C)=O)[C@@]2(C)C[C@@H]1N1CCCCC1 [Vecuronium bromide] | 112 |  | remaining activity at 10 µM [2, 4]: 83%
13 | CCCN1C[C@H](CSC)C[C@@H]2c3cccc4[nH]cc(c34)C[C@H]21 [Pergolide mesylate] | 38.8 | 76.6 | 
14 | CC(C)NC[C@H](O)COc1cccc2ccccc12 [(S)-propranolol hydrochloride] | 66.5 | 97.8 | 
15 | CC(C(=O)[O-])c1cccc(Oc2ccccc2)c1.CC(C(=O)[O-])c1cccc(Oc2ccccc2)c1.O.O.[Ca+2] (stereo not drawn) [Fenoprofen calcium salt dihydrate] |  |  | %NTCP activity [1, 5]: 53.0016%; %NTCP binding [2, 3]: 88.2286%
16 | CC[C@]12CCCN3CCc4c(n(c5ccccc45)[C@@](O)(C(=O)OC)C1)[C@@H]32 [Vincamine] | 40.6 | 92.6 | 
17 | CN(C)CCOC(C)(c1ccccc1)c1ccccn1 (stereo not drawn) [Doxylamine succinate] | 94.8 | 104 | 
18 | CCCC(C(=O)OCCN(CC)CC)(c1ccccc1)c1ccccc1 [Proadifen hydrochloride] | 97.1 | 79.5 | 
19 | CC(C)Cn1cnc2c(N)nc3ccccc3c21 [Imiquimod] | 113 | 89.5 | 
20 | COP(=O)(OC)C(O)C(Cl)(Cl)Cl (stereo not drawn) [Trichlorfon] | 133 |  | remaining activity at 10 µM [2, 6]: 108%
21 | O=C(CCCN1CCN(c2ccccn2)CC1)c1ccc(F)cc1 [Azaperone] | 137 | 86.6 | 
22 | Nc1c2ccccc2nc2ccccc12 [Aminacrine] | 79.5 | 88.6 | 
23 | CC(=O)Nc1nnc(S(N)(=O)=O)s1 [Acetazolamide] | 177 | 109 | 
24 | C[C@H](N)[C@H](O)c1ccc(O)c(O)c1 [Levonordefrin] | 107 |  | remaining activity at 10 µM [2, 6]: 85.7%
25 | CCCCC(C)(O)C/C=C/[C@H]1[C@H](O)CC(=O)[C@@H]1CCCCCCC(=O)OC (mixture of isomers) [Misoprostol] | 124 | 99.3 | 
26 | Cl.c1cnc(N2CCN(Cc3ccc4c(c3)OCO4)CC2)nc1 [Piribedil hydrochloride] |  |  | %NTCP activity [1, 7]: 75.4496%; %NTCP binding [2, 8]: 91.7024%
27 | CN(C(=O)CN(CCO)CC(=O)N(C)C(C)(C)Cc1ccccc1)C(C)(C)Cc1ccccc1 [Oxethazaine] | 111 | 100 | 

Row | Structure (SMILES) | remaining activity at 10 µM [1] [%] | remaining activity at 10 µM ([2]; 0.5 h, read-out: %NTCP binding) [%] | other results
28 | CC(C)N1CCN(c2ccc(OCC3COC(Cn4cncn4)(c4ccc(Cl)cc4Cl)O3)cc2)CC1 (stereo not drawn) [Terconazole] | 41 | 74.9 | 
29 | CCn1cc(C(=O)O)c(=O)c2cc3c(cc21)OCO3 [Oxolinic acid] | 110 |  | remaining activity at 10 µM [2, 4]: 85.7%
30 | CCSc1ccc2c(c1)N(CCCN1CCN(C)CC1)c1ccccc1S2.O=C(O)CC(O)C(=O)O.O=C(O)CC(O)C(=O)O [Thiethylperazine dimalate] |  |  | %NTCP activity [1, 7]: 122.125%; %NTCP binding [2, 8]: 117.903%
31 | O=c1n(CCCN2CCN(c3cccc(Cl)c3)CC2)nc2ccccn12 [Trazodone hydrochloride] | 71.4 | 73.7 | 
32 | CN[C@@H]1[C@@H](O[C@H]2O[C@H](CO)[C@@H](N)[C@H](O)[C@H]2O)OC2C[C@@H](N)[C@@H](O[C@H]3[C@H](O)[C@@H](O)[C@H](N)C[C@@H]3N)OC2[C@@H]1O (stereo partly drawn) [Apramycin] | 73.7 | 85.4 | 
33 | CC(C(=O)O)c1ccc(C(=O)c2cccs2)cc1 (stereo not drawn) [Suprofen] | 87.5 | 121 | 
34 | C[N+]1(C)[C@@H]2CC[C@H]1C[C@@H](OC(=O)C(CO)c1ccccc1)C2 (stereo partly drawn) [Methylatropine nitrate] | 65.3 | 100 | 
35 | Cl.N[C@@H]1CCCCN(c2c(F)cc3c(=O)c(C(=O)O)cn(C4CC4)c3c2Cl)C1 [Besifloxacin hydrochloride] |  |  | %NTCP activity [1]: 119.185%; %NTCP binding [2, 8]: 37.1462%
36 | CC(C)(C)NCC(O)COc1cccc2c1CCC(=O)N2 (stereo not drawn) [Carteolol hydrochloride] | 46.6 | 46.2 | 
37 | CC(CN(C)C)CN1c2ccccc2Sc2ccccc21.CC(CN(C)C)CN1c2ccccc2Sc2ccccc21.O=C(O)C(O)C(O)C(=O)O (stereo not drawn) [Trimeprazine tartrate] |  |  | %NTCP activity [1, 5]: 81.6261%; %NTCP binding [2, 3]: 89.6044%
38 | C=C1C[C@H]2[C@@H]3C=C(C)C4=CC(=O)CC[C@]4(C)[C@H]3CC[C@]2(C)[C@@]1(OC(C)=O)C(C)=O [Melengestrol acetate] | 51.5 | 89.2 | 
39 | COc1ccc(Cc2nccc3cc(OC)c(OC)cc23)cc1OC [Papaverine hydrochloride] | 108 |  | remaining activity at 10 µM [2, 4]: 83.8%
40 | c1ccc(CNc2ncnc3[nH]cnc23)cc1 [Aminopurine, 6-benzyl] |  |  | %NTCP activity [1, 5]: 126.176%; %NTCP binding [2, 3]: 57.1397%
41 | O=C(CCNNC(=O)c1ccncc1)NCc1ccccc1 [Nialamide] | 96.2 | 96.2 | 
42 | COc1ccc(CN2CCNCC2)c(OC)c1OC [Trimetazidine dihydrochloride] | 61 |  | remaining activity at 10 µM [2, 6]: 61%
43 | CCC(C)(C)c1ccc(CC(C)CN2C[C@@H](C)O[C@@H](C)C2)cc1 (stereo partly drawn) [Amorolfine hydrochloride] | 78 | 89.3 | 
44 | Nc1nc(=O)c2c([nH]1)NCC(CNc1ccc(C(=O)N[C@@H](CCC(=O)[O-])C(=O)[O-])cc1)N2C=O.[Ca+2] (stereo partly drawn) [Folinic acid calcium salt] |  |  | %NTCP activity ([1]; Prestwick library screen, [14C]taurocholate uptake, 10 µM drug): 106.303%; %NTCP binding ([2]; Prestwick library screen, Myrcludex B-FITC binding, 10 µM drug): 93.8027%
45 | CCN1CCN(c2cc3c(cc2F)c(=O)c(C(=O)O)cn3C2CC2)CC1 [Enrofloxacin] | 87.1 | 88.8 | 
46 | COc1c2occc2c(OC)c2c(=O)cc(C)oc12 [Khellin] | 51.5 | 85.8 | 
47 | COc1cc2nc(N3CCN(C(=O)C4COc5ccccc5O4)CC3)nc(N)c2cc1OC (stereo not drawn) [Doxazosin mesylate] | 111 | 86.9 | 
48 | CC[N+]1(C)CCCC(OC(=O)C(O)(c2ccccc2)c2ccccc2)C1 (stereo not drawn) [Pipenzolate bromide] | 102 | 89 | 
49 | Cc1cccc(C)c1NC(=O)C(C)N (stereo not drawn) [Tocainide hydrochloride] | 92.7 | 107 | 
50 | NCCCNCCSP(=O)(O)O [Amifostine] | 60.7 | 67.1 | 
51 | CCC1(C)CC(=O)NC1=O (stereo not drawn) [Ethosuximide] | 103 | 74.8 | 
52 | Nc1nc(N)nc(-c2cc(Cl)ccc2Cl)n1 [Irsogladine maleate] | 135 | 75.2 | 
53 | CC(C)(C)NCC(O)COc1cccc2c1CC(O)C(O)C2 (stereo not drawn) [Nadolol] | 93.6 | 113 | 
54 | O=C1c2ccccc2S(=O)(=O)N1CCCCN1CCN(c2ncccn2)CC1 [Ipsapirone] | 133 | 87.4 | 
